From the supplement of paper PMC4967469
IC50 is the fitted dose that halves viability relative to control wells, and lower means more sensitive; fits outside the tested doses are given as limits. AUC, from the same fit, is the share of area under the viability curve across the 256-fold dose range; it is 1 without any effect and falls as sensitivity rises. For some assays here: A top dose marked as inferred was derived from the fitted curves, not read from the paper.

How the values were obtained:
Test in all cases: Viability of human cancer cell lines after 72 h of drug (GDSC screen)
[1] = compound: COc1cc2nccc(Oc3ccc(NC(=O)C4(C(=O)Nc5ccc(F)cc5)CC4)cc3)c2cc1OC [XL-184]; settings: top dose 5.12 µM; top dose inferred
Description: (§1)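 Human cancer cell lines in 384-well plates, medium with 10% serum, drug for 72 h over a 256-fold dose range (nine 2-fold or five 4-fold steps up to the top dose). Adherent lines were fixed and stained with the nucleic acid dye Syto60, suspension lines read with resazurin; signal relative to control wells, capped at 0 and 100%. One two-parameter sigmoid per drug and line, fitted in a mixed model over all curves with the slope shared within a line.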

[2] = compound: C=CC(=O)Nc1cc(NC(=O)c2ccc(C)c(NC(=O)c3ccno3)c2)cc(C(F)(F)F)c1 [QL-XI-92]; settings: top dose 10.24 µM; top dose inferred
Description: as §1

[3] = compound: O=c1cc(N2CCOCC2)oc2c(-c3cccc4c3sc3ccccc34)cccc12 [NU-7441]; settings: top dose 2 µM; top dose inferred
Description: as §1

[4] = compound: N=C(N)NC(=N)NCCc1ccccc1 [Phenformin]; settings: top dose 4000 µM; top dose inferred
Description: as §1

[5] = compound: CNCc1ccc(-c2[nH]c3cc(F)cc4c3c2CCNC4=O)cc1 [AG-014699]; settings: top dose 5 µM; top dose inferred
Description: as §1

[6] = compound: COc1cc2ncnc(Nc3cc(Br)c(O)c(Br)c3)c2cc1OC [WHI-P97]; settings: top dose 10.24 µM; top dose inferred
Description: as §1

[7] = compound: O=c1cc(CN2CCOCC2)occ1OCCCCCSc1ccnc2cc(C(F)(F)F)ccc12 [EHT 1864]; settings: top dose 10 µM; top dose inferred
Description: as §1

[8] = compound: COc1cc2ncnc(Nc3ccc(F)c(Cl)c3)c2cc1OCCCN1CCOCC1 [Gefitinib]; settings: top dose 0.5 µM
Description: as §1

## COR-L321 (lung, suspension)
[1]
  AUC: 0.971
  IC50: > 5.12 µM
[2]
  AUC: 0.854
  IC50: 8.02 µM
[3]
  AUC: 0.987
  IC50: > 2000 nM
[4]
  AUC: 0.898
  IC50: > 4 mM
[5]
  AUC: 0.982
  IC50: > 5 µM
[6]
  AUC: 0.969
  IC50: > 10.2 µM
[7]
  AUC: 0.924
  IC50: > 10 µM
[8]
  AUC: 0.978
  IC50: > 500 nM

## D-423MG (glioma, adherent)
[1]
  AUC: 0.888
  IC50: > 5.12 µM
[2]
  AUC: 0.863
  IC50: > 10.2 µM
[3]
  AUC: 0.832
[4]
  AUC: 0.733
  IC50: 1.36 mM
[5]
  AUC: 0.973
  IC50: > 5 µM
[6]
  AUC: 0.959
  IC50: > 10.2 µM
[7]
  AUC: 0.858
  IC50: > 10 µM
[8]
  AUC: 0.97
  IC50: > 500 nM

## D-566MG (glioma, adherent)
[1]
  AUC: 0.897
  IC50: > 5.12 µM
[2]
  AUC: 0.939
  IC50: > 10.2 µM
[3]
  AUC: 0.957
  IC50: > 2000 nM
[4]
  AUC: 0.905
  IC50: > 4 mM
[5]
  AUC: 0.939
  IC50: > 5 µM
[6]
  AUC: 0.969
  IC50: > 10.2 µM
[7]
  AUC: 0.952
  IC50: > 10 µM
[8]
  AUC: 0.958
  IC50: > 500 nM

## DOV13 (ovary, adherent)
[1]
  AUC: 0.938
  IC50: > 5.12 µM
[2]
  AUC: 0.983
  IC50: > 10.2 µM
[3]
  AUC: 0.923
  IC50: > 2000 nM
[4]
  AUC: 0.964
  IC50: > 4 mM
[5]
  AUC: 0.967
  IC50: > 5 µM
[6]
  AUC: 0.908
  IC50: > 10.2 µM
[7]
  AUC: 0.927
  IC50: > 10 µM
[8]
  AUC: 0.915
  IC50: > 500 nM

## EMC-BAC-2 (lung adenocarcinoma, adherent)
[1]
  AUC: 0.948
  IC50: > 5.12 µM
[2]
  AUC: 0.908
  IC50: > 10.2 µM
[3]
  AUC: 0.956
  IC50: > 2000 nM
[4]
  AUC: 0.97
  IC50: > 4 mM
[5]
  AUC: 0.982
  IC50: > 5 µM
[6]
  AUC: 0.953
  IC50: > 10.2 µM
[7]
  AUC: 0.967
  IC50: > 10 µM
[8]
  AUC: 0.979
  IC50: > 500 nM

## ESO26 (oesophagus, adherent)
[1]
  AUC: 0.923
  IC50: > 5.12 µM
[2]
  AUC: 0.912
  IC50: > 10.2 µM
[3]
  AUC: 0.985
  IC50: > 2000 nM
[4]
  AUC: 0.983
  IC50: > 4 mM
[5]
  AUC: 0.989
  IC50: > 5 µM
[6]
  AUC: 0.93
  IC50: > 10.2 µM
[7]
  AUC: 0.981
  IC50: > 10 µM
[8]
  AUC: 0.909
  IC50: > 500 nM

## FLO-1 (oesophagus, adherent)
[1]
  AUC: 0.863
  IC50: > 5.12 µM
[2]
  AUC: 0.902
  IC50: > 10.2 µM
[3]
  AUC: 0.909
  IC50: > 2000 nM
[4]
  AUC: 0.927
  IC50: > 4 mM
[5]
  AUC: 0.959
  IC50: > 5 µM
[6]
  AUC: 0.903
  IC50: > 10.2 µM
[7]
  AUC: 0.901
  IC50: > 10 µM
[8]
  AUC: 0.969
  IC50: > 500 nM

## Hey (ovary, adherent)
[1]
  AUC: 0.955
  IC50: > 5.12 µM
[2]
  AUC: 0.933
  IC50: > 10.2 µM
[3]
  AUC: 0.948
  IC50: > 2000 nM
[4]
  AUC: 0.972
  IC50: > 4 mM
[5]
  AUC: 0.924
  IC50: > 5 µM
[6]
  AUC: 0.98
  IC50: > 10.2 µM
[7]
  AUC: 0.942
  IC50: > 10 µM
[8]
  AUC: 0.982
  IC50: > 500 nM

## JHOS-2 (ovary, adherent)
[1]
  AUC: 0.921
  IC50: > 5.12 µM
[2]
  AUC: 0.931
  IC50: > 10.2 µM
[3]
  AUC: 0.909
  IC50: > 2000 nM
[4]
  AUC: 0.978
  IC50: > 4 mM
[5]
  AUC: 0.965
  IC50: > 5 µM
[6]
  AUC: 0.854
  IC50: > 10.2 µM
[7]
  AUC: 0.975
  IC50: > 10 µM
[8]
  AUC: 0.862
  IC50: > 500 nM

## JHOS-3 (ovary, adherent)
[1]
  AUC: 0.944
  IC50: > 5.12 µM
[2]
  AUC: 0.96
  IC50: > 10.2 µM
[3]
  AUC: 0.979
  IC50: > 2000 nM
[4]
  AUC: 0.967
  IC50: > 4 mM
[5]
  AUC: 0.974
  IC50: > 5 µM
[6]
  AUC: 0.899
  IC50: > 10.2 µM
[7]
  AUC: 0.963
  IC50: > 10 µM
[8]
  AUC: 0.973
  IC50: > 500 nM

## KMS-11 (myeloma, suspension)
[1]
  AUC: 0.905
  IC50: > 5.12 µM
[2]
  AUC: 0.94
  IC50: > 10.2 µM
[3]
  AUC: 0.967
  IC50: > 2000 nM
[4]
  AUC: 0.991
  IC50: > 4 mM
[5]
  AUC: 0.99
  IC50: > 5 µM
[6]
  AUC: 0.951
  IC50: > 10.2 µM
[7]
  AUC: 0.948
  IC50: > 10 µM
[8]
  AUC: 0.949
  IC50: > 500 nM

## KYAE-1 (oesophagus, suspension)
[1]
  AUC: 0.947
  IC50: > 5.12 µM
[2]
  AUC: 0.809
  IC50: 6.05 µM
[3]
  AUC: 0.895
  IC50: > 2000 nM
[4]
  AUC: 0.971
  IC50: > 4 mM
[5]
  AUC: 0.935
  IC50: > 5 µM
[6]
  AUC: 0.883
  IC50: > 10.2 µM
[7]
  AUC: 0.983
  IC50: > 10 µM
[8]
  AUC: 0.645
  IC50: 82.6 nM

## MOLT-13 (T-cell lymphoblastic leukaemia, suspension)
[1]
  AUC: 0.944
  IC50: > 5.12 µM
[2]
  AUC: 0.703
  IC50: 2.19 µM
[3]
  AUC: 0.976
  IC50: > 2000 nM
[4]
  AUC: 0.95
  IC50: > 4 mM
[5]
  AUC: 0.973
  IC50: > 5 µM
[6]
  AUC: 0.952
  IC50: > 10.2 µM
[7]
  AUC: 0.954
  IC50: > 10 µM
[8]
  AUC: 0.842
  IC50: 290 nM

## NCC021 (kidney, adherent)
[1]
  AUC: 0.871
  IC50: > 5.12 µM
[2]
  AUC: 0.926
  IC50: > 10.2 µM
[3]
  AUC: 0.951
  IC50: > 2000 nM
[4]
  AUC: 0.979
  IC50: > 4 mM
[5]
  AUC: 0.983
  IC50: > 5 µM
[6]
  AUC: 0.974
  IC50: > 10.2 µM
[7]
  AUC: 0.966
  IC50: > 10 µM
[8]
  AUC: 0.984
  IC50: > 500 nM

## OACM5-1 (oesophagus, semi-adherent)
[1]
  AUC: 0.849
  IC50: 4.59 µM
[2]
  AUC: 0.876
  IC50: > 10.2 µM
[3]
  AUC: 0.969
  IC50: > 2000 nM
[4]
  AUC: 0.969
  IC50: > 4 mM
[5]
  AUC: 0.986
  IC50: > 5 µM
[6]
  AUC: 0.77
  IC50: 4.38 µM
[7]
  AUC: 0.976
  IC50: > 10 µM
[8]
  AUC: 0.958
  IC50: > 500 nM

## OACp4C (oesophagus, adherent)
[1]
  AUC: 0.91
  IC50: > 5.12 µM
[2]
  AUC: 0.904
  IC50: > 10.2 µM
[3]
  AUC: 0.948
  IC50: > 2000 nM
[4]
  AUC: 0.906
  IC50: > 4 mM
[5]
  AUC: 0.975
  IC50: > 5 µM
[6]
  AUC: 0.6
  IC50: 1.28 µM
[7]
  AUC: 0.956
  IC50: > 10 µM
[8]
  AUC: 0.935
  IC50: > 500 nM

## OC-314 (ovary, adherent)
[1]
  AUC: 0.976
  IC50: > 5.12 µM
[2]
  AUC: 0.97
  IC50: > 10.2 µM
[3]
  AUC: 0.953
  IC50: > 2000 nM
[4]
  AUC: 0.926
  IC50: > 4 mM
[5]
  AUC: 0.945
  IC50: > 5 µM
[6]
  AUC: 0.95
  IC50: > 10.2 µM
[7]
  AUC: 0.958
  IC50: > 10 µM
[8]
  AUC: 0.978
  IC50: > 500 nM

## OV-7 (ovary, adherent)
[1]
  AUC: 0.843
  IC50: > 5.12 µM
[2]
  AUC: 0.853
  IC50: > 10.2 µM
[3]
  AUC: 0.879
  IC50: > 2000 nM
[4]
  AUC: 0.97
  IC50: > 4 mM
[5]
  AUC: 0.963
  IC50: > 5 µM
[6]
  AUC: 0.902
  IC50: > 10.2 µM
[7]
  AUC: 0.965
  IC50: > 10 µM
[8]
  AUC: 0.868
  IC50: > 500 nM
